Whole data set: some 33,000 sequences, median “E-score (-0.5 to 0.5)” near -0.054, cut for the highest 2% near 0.35. Some of the results follow.
target: T1, Stb5 (UniProt P38699); assay: PBM E-score (8-mer binding enrichment) (E-score (-0.5 to 0.5)); higher = stronger / more preferred TF binding; most listed sequences are background and not binding sites; conditions: protein concentration: 200 nM; construct: GST-full length
T1 sequence: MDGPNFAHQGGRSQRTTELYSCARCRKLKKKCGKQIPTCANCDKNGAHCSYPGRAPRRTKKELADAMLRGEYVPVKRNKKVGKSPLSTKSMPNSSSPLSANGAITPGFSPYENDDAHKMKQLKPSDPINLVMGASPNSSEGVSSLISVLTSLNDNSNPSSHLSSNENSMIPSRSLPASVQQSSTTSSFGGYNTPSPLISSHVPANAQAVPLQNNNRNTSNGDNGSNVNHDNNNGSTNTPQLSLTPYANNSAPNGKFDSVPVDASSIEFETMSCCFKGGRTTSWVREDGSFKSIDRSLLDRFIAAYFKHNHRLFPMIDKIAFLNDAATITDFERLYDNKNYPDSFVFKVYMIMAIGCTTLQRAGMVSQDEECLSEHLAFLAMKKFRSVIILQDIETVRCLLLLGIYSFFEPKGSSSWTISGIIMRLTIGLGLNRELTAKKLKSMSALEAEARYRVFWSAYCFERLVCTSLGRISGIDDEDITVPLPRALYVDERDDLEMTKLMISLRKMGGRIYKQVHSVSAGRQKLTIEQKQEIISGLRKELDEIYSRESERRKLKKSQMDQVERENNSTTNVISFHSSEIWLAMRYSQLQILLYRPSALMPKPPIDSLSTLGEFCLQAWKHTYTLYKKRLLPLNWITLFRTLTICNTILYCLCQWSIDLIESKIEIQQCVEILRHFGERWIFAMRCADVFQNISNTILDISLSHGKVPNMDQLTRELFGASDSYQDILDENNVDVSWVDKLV
Method: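 Universal 'all 10-mer' protein binding microarrays (Agilent AMADID 015681) probed with GST-tagged S. cerevisiae TFs (full-length or DBD) made by in vitro transcription/translation (PURExpress), about 100-200 nM. Bound TF was detected with fluorescent anti-GST. Each ungapped 8-mer (which stands for itself and its reverse complement) is scored by the PBM enrichment score (E-score), a modified Wilcoxon-Mann-Whitney statistic from -0.5 to +0.5, computed with the Universal PBM Analysis Suite. Scale: above 0.35 generally sequence-specific binding.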

Sequence | PBM E-score
AATGTTAG | -0.142
GCTCCTGA | 0.0759
CACAAGCG | -0.0542
GAGAGAAC | -0.166
ACTGGAAT | -0.179
CGCAGGGC | 0.0595
CGGAATAG | 0.108
TATCTTCA | -0.256
CGGTTGCC | 0.00076
TAACAATA | 0.058
CAGTGTAC | -0.207
ACGGCCAC | 0.0882
ATGGTTGA | -0.174
CACAACTA | -0.0345
CTCACAAA | -0.111
CGCGTGGC | -0.0237
AATTCAGG | -0.129
GGTGCTAA | 0.358
AATCAATG | -0.0889
AATCTACG | -0.12
GTGTGAGA | -0.0818
CCTTTATC | 0.0781
CTCCCAGC | -0.254
TAAGGATA | -0.123
ATTATTCA | 0.0277

Sequence | PBM E-score
CATTTTGA | -0.218
CGCTTAAA | 0.123
CGACCCCG | 0.306
AGACTACG | -0.125
GCATACAC | -0.115
AAATATAG | -0.0318
GAGGCTCA | -0.116
CGCACCCC | 0.137
TAACAGAA | -0.191
TTAGCCAA | -0.153
CCGGGTAG | -0.0921
CGTTCGCA | -0.109
CGTAACGA | -0.149
ACTGCGGC | 0.168
GCTGGGAA | -0.00896
ATCTCTCA | -0.107
TAAGTGTA | -0.291
ATAAGCAT | 0.114
CAGGTGGG | -0.261
CAAGATAC | -0.116
ATGGAAGA | -0.177
ATGTATAA | -0.0764
AAGCGATG | -0.0499
GGAGATTA | 0.287
GAAAACAA | -0.11

Sequence | PBM E-score
TGGGCCAA | -0.138
CATTACGC | 0.146
ATGTGGGC | 0.089
CACAGCTA | -0.125
ACGGACGG | 0.212
CGATAGGA | 0.108
GCTCCAGA | -0.201
AATCCCAC | -0.0963
CGTCGCCC | 0.0497
CCCCAGCC | -0.163
AATCCTCC | 0.154
ACGGCTGA | -0.134
CCTTCTTC | -0.17
AGCGACAC | -0.078
AACTGTCG | -0.0119
AGCCGACA | 0.198
CTATCTCC | 0.235
CGGTGATC | 0.279
TGAACGCA | -0.195
AATCTTCG | -0.0852
AGGCTCAC | -0.213
AGCATTTC | -0.135
CACTTAAA | -0.0235
CTTCGGAA | 0.215
ATACTTCG | -0.0376

Sequence | PBM E-score
GACCCCCC | -0.259
TAAAAGCA | -0.039
AGGCCACC | -0.188
TCTTGGAA | -0.101
AGAATAAT | -0.0609
GATCTTGA | -0.0767
CCAACAAC | -0.113
AAGCGCCG | 0.396
GGACGAAA | 0.0804
CCTCTACA | -0.192
AAAGTTGA | -0.198
ATGTTTGG | -0.144
ATACTAAT | -0.0636
GCATTGGA | -0.0175
GCCATGCC | -0.0299
GAAGGGTA | -0.0478
CATAATAC | -0.0653
ATTCTAGC | -0.193
CAGATATG | -0.0209
TCAAAGAA | -0.165
GTGGGTTA | -0.0789
ATCACAAC | 0.044
GTACATAC | -0.0452
AGAGCCTA | -0.296
AGCGCCGA | 0.342

Sequence | PBM E-score
TCTGCAAA | -0.0584
GCAATAGA | -0.12
AACACGTT | -0.108
ATGCTATA | -0.0523
AAGAAATA | -0.123
CTCCTTTA | -0.0841
GCTCCACA | -0.113
GAAAAAGC | 0.137
CAACTGAC | -0.0534
ACGAAAAG | 0.0446
ATACAATG | -0.0364
GGGGCACC | 0.103
AACATGGC | -0.178
AATGGGAA | -0.284
AAGAAGAT | -0.178
CGGTGAAA | 0.41
AAAGTAAA | -0.0754
ATTGCATC | -0.128
ATGAGTAA | -0.0997
AGAAAGTG | -0.168
CTTTTCCC | 0.117
AGCTGAGC | -0.102
CTGCGATC | -0.132
AAAGGCAT | -0.0751
AATCCTTG | -0.14

Sequence | PBM E-score
GGAGGCGA | -0.11
ATTTGCTG | -0.0919
TCGCCAAA | -0.248
CCTCATTA | -0.134
AAGTCAAC | -0.345
CAGCGACC | 0.129
AATATCAC | 0.194
AGTTCTCG | -0.209
ATACTTCA | -0.217
ATCCCCGA | 0.374
CAATAAGA | -0.109
ACGGCTCT | 0.155
ATCTTAAA | -0.119
CCTTGCTA | -0.176
GAGCCCCC | -0.149
CAAGCGGA | 0.223
ATCTTAAG | 0.0557
CTTAACTA | -0.0837
CTAGTGAG | -0.114
CGTCTGAC | -0.00438
CAGGTGGA | -0.22
TGTAACAA | -0.111
ATTCTCAG | -0.187
ATCAGAAA | -0.194
AACGCCCC | 0.0885

Sequence | PBM E-score
ACTTTCAT | -0.0247
AATAGGGC | 0.0206
CAGAACGA | -0.18
CATAGGAC | -0.108
AGATCGCC | -0.132
GGGGAAAA | 0.191
AGAAACCA | -0.212
ATCCTAGC | -0.179
CGGCTGCA | 0.161
GTTCTACA | -0.00541
ACCTAAAC | 0.0352
CCCATACA | -0.324
ATGCCTGG | -0.109
ACTTGCAT | 0.0144
GCTACGTA | -0.0756
ATTGCAGC | -0.051
ACAGCGGG | 0.332
CGACCTAA | 0.017
CGAGTCTC | -0.227
GTTTATAA | 0.235
ACCCGTGC | -0.0288
CATAGTCA | -0.28

Source: the supplement of paper PMC3334620
